# Measurements published in the supplement of paper PMC8728848.
# This is one part of the list.
# B1: CML1 (Coprinopsis cinerea) (protein)
# chain: MAIFHTGSELFIITRGPGKLTLLTWGGLNNLRSVIGAIPTENTGVTKWAVSFSHNYTRFSFIWEGQGEACYQIGNGLTRSPVGRSWSSSSTIHWGSSTVITEDVTSVVPGAVNRDKVTTAYALPDNL
# How the values were obtained:
# Assay in all cases: glycan array binding signal (z-score within array); higher = stronger binding
# Conditions in all cases: glycan notation: IUPAC condensed, linker removed
# [1] = target: GlcNAc(b1-3)Gal(b1-3)GalNAc
# Procedure, shortened: (§1)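 Glycan array data were curated from 3228 arrays in the Consortium for Functional Glycomics database and kept only where the protein sequence was available. Glycan names were converted to IUPAC-condensed notation, and columns mapping to the same glycan were averaged. The binding signal is a within-array Z-score, averaged across arrays of the same protein sequence at different concentrations or buffers and across linkers. Negative Z-scores can be read as non-binding.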
# GlcNAc(b1-3)Gal(b1-4)Glc = target: GlcNAc(b1-3)Gal(b1-4)Glc
# Procedure, shortened: as §1
# [2] = target: GlcNAc(b1-3)Gal(b1-4)GlcNAc
# Procedure, shortened: as §1
# [3] = target: GlcNAc(b1-3)Gal(b1-4)GlcNAc(b1-2)Man(a1-3)[GlcNAc(b1-3)Gal(b1-4)GlcNAc(b1-2)Man(a1-6)]Man(b1-4)GlcNAc(b1-4)GlcNAc
# Procedure, shortened: as §1
# [4] = target: GlcNAc(b1-3)Gal(b1-4)GlcNAc(b1-2)Man(a1-3)[GlcNAc(b1-3)Gal(b1-4)GlcNAc(b1-2)Man(a1-6)]Man(b1-4)GlcNAc(b1-4)[Fuc(a1-6)]GlcNAc
# Procedure, shortened: as §1
# [5] = target: GlcNAc(b1-3)Gal(b1-4)GlcNAc(b1-2)[GlcNAc(b1-3)Gal(b1-4)GlcNAc(b1-6)]Man(a1-6)[GlcNAc(b1-3)Gal(b1-4)GlcNAc(b1-2)Man(a1-3)]Man(b1-4)GlcNAc(b1-4)GlcNAc
# Procedure, shortened: as §1
# [6] = target: GlcNAc(b1-3)Gal(b1-4)GlcNAc(b1-3)Gal(b1-4)GlcNAc
# Procedure, shortened: as §1
# [7] = target: GlcNAc(b1-3)Gal(b1-4)GlcNAc(b1-3)Gal(b1-4)GlcNAc(b1-2)Man(a1-3)[GlcNAc(b1-3)Gal(b1-4)GlcNAc(b1-3)Gal(b1-4)GlcNAc(b1-2)Man(a1-6)]Man(b1-4)GlcNAc(b1-4)GlcNAc
# Procedure, shortened: as §1
# [8] = target: GlcNAc(b1-3)Gal(b1-4)GlcNAc(b1-3)Gal(b1-4)GlcNAc(b1-2)Man(a1-3)[GlcNAc(b1-3)Gal(b1-4)GlcNAc(b1-3)Gal(b1-4)GlcNAc(b1-2)Man(a1-6)]Man(b1-4)GlcNAc(b1-4)[Fuc(a1-6)]GlcNAc
# Procedure, shortened: as §1
# [9] = target: GlcNAc(b1-3)Gal(b1-4)GlcNAc(b1-3)Gal(b1-4)GlcNAc(b1-2)[GlcNAc(b1-3)Gal(b1-4)GlcNAc(b1-3)Gal(b1-4)GlcNAc(b1-6)]Man(a1-6)[GlcNAc(b1-3)Gal(b1-4)GlcNAc(b1-3)Gal(b1-4)GlcNAc(b1-2)Man(a1-3)]Man(b1-4)GlcNAc(b1-4)[Fuc(a1-6)]GlcNAc
# Procedure, shortened: as §1
# [10] = target: GlcNAc(b1-3)Gal(b1-4)GlcNAc(b1-3)Gal(b1-4)GlcNAc(b1-3)Gal(b1-4)GlcNAc(b1-2)Man(a1-3)[GlcNAc(b1-3)Gal(b1-4)GlcNAc(b1-3)Gal(b1-4)GlcNAc(b1-3)Gal(b1-4)GlcNAc(b1-2)Man(a1-6)]Man(b1-4)GlcNAc(b1-4)GlcNAc
# Procedure, shortened: as §1
# [11] = target: GlcNAc(b1-3)Gal(b1-4)GlcNAc(b1-3)Gal(b1-4)GlcNAc(b1-3)Gal(b1-4)GlcNAc(b1-2)Man(a1-3)[GlcNAc(b1-3)Gal(b1-4)GlcNAc(b1-3)Gal(b1-4)GlcNAc(b1-3)Gal(b1-4)GlcNAc(b1-2)Man(a1-6)]Man(b1-4)GlcNAc(b1-4)[Fuc(a1-6)]GlcNAc
# Procedure, shortened: as §1
# [12] = target: GlcNAc(b1-3)Gal(b1-4)GlcNAc(b1-3)Gal(b1-4)GlcNAc(b1-3)Gal(b1-4)GlcNAc(b1-2)[GlcNAc(b1-3)Gal(b1-4)GlcNAc(b1-3)Gal(b1-4)GlcNAc(b1-3)Gal(b1-4)GlcNAc(b1-6)]Man(a1-6)[GlcNAc(b1-3)Gal(b1-4)GlcNAc(b1-3)Gal(b1-4)GlcNAc(b1-3)Gal(b1-4)GlcNAc(b1-2)Man(a1-3)]Man(b1-4)GlcNAc(b1-4)[Fuc(a1-6)]GlcNAc
# Procedure, shortened: as §1
# [13] = target: GlcNAc(b1-3)Gal(b1-4)GlcNAc(b1-3)Gal(b1-4)GlcNAc(b1-3)Gal(b1-4)GlcNAc(b1-3)Gal(b1-4)GlcNAc(b1-2)Man(a1-3)[GlcNAc(b1-3)Gal(b1-4)GlcNAc(b1-3)Gal(b1-4)GlcNAc(b1-3)Gal(b1-4)GlcNAc(b1-3)Gal(b1-4)GlcNAc(b1-2)Man(a1-6)]Man(b1-4)GlcNAc(b1-4)GlcNAc
# Procedure, shortened: as §1
# [14] = target: GlcNAc(b1-3)Gal(b1-4)GlcNAc(b1-3)Gal(b1-4)GlcNAc(b1-3)Gal(b1-4)GlcNAc(b1-3)Gal(b1-4)GlcNAc(b1-2)Man(a1-3)[GlcNAc(b1-3)Gal(b1-4)GlcNAc(b1-3)Gal(b1-4)GlcNAc(b1-3)Gal(b1-4)GlcNAc(b1-3)Gal(b1-4)GlcNAc(b1-2)Man(a1-6)]Man(b1-4)GlcNAc(b1-4)[Fuc(a1-6)]GlcNAc
# Procedure, shortened: as §1
# [15] = target: GlcNAc(b1-3)Gal(b1-4)GlcNAc(b1-3)Gal(b1-4)GlcNAc(b1-3)Gal(b1-4)GlcNAc(b1-3)Gal(b1-4)GlcNAc(b1-2)[GlcNAc(b1-3)Gal(b1-4)GlcNAc(b1-3)Gal(b1-4)GlcNAc(b1-3)Gal(b1-4)GlcNAc(b1-3)Gal(b1-4)GlcNAc(b1-6)]Man(a1-6)[GlcNAc(b1-3)Gal(b1-4)GlcNAc(b1-3)Gal(b1-4)GlcNAc(b1-3)Gal(b1-4)GlcNAc(b1-3)Gal(b1-4)GlcNAc(b1-2)Man(a1-3)]Man(b1-4)GlcNAc(b1-4)[Fuc(a1-6)]GlcNAc
# Procedure, shortened: as §1
# [16] = target: GlcNAc(b1-3)Gal(b1-4)GlcNAc(b1-3)Gal(b1-4)GlcNAc(b1-3)GalNAc
# Procedure, shortened: as §1
# [17] = target: GlcNAc(b1-3)Gal(b1-4)GlcNAc(b1-3)GalNAc
# Procedure, shortened: as §1
# [18] = target: GlcNAc(b1-3)Gal(b1-4)GlcNAc(b1-3)[GlcNAc(b1-3)Gal(b1-4)GlcNAc(b1-3)]GalNAc
# Procedure, shortened: as §1
# [19] = target: GlcNAc(b1-3)Gal(b1-4)GlcNAc(b1-6)[Gal(b1-3)]GalNAc
# Procedure, shortened: as §1
# [20] = target: GlcNAc(b1-3)Gal(b1-4)GlcNAc(b1-6)[GlcNAc(b1-3)Gal(b1-3)]GalNAc
# Procedure, shortened: as §1
# [21] = target: GlcNAc(b1-3)Gal(b1-4)GlcNAc(b1-6)[GlcNAc(b1-3)]Gal(b1-4)GlcNAc
# Procedure, shortened: as §1
# GlcNAc(b1-3)GalNAc = target: GlcNAc(b1-3)GalNAc
# Procedure, shortened: as §1
# GlcNAc(b1-3)Man = target: GlcNAc(b1-3)Man
# Procedure, shortened: as §1
# [22] = target: GlcNAc(b1-3)[GlcNAc(b1-4)][GlcNAc(b1-6)]GlcNAc
# Procedure, shortened: as §1
# [23] = target: GlcNAc(b1-3)[GlcNAc(b1-6)]Gal(b1-4)GlcNAc
# Procedure, shortened: as §1
# [24] = target: GlcNAc(b1-3)[GlcNAc(b1-6)]GalNAc
# Procedure, shortened: as §1
# [25] = target: GlcNAc(b1-4)Gal(b1-4)GlcNAc
# Procedure, shortened: as §1
# GlcNAc(b1-4)GlcNAc = target: GlcNAc(b1-4)GlcNAc
# Procedure, shortened: as §1
# [26] = target: GlcNAc(b1-4)GlcNAc(b1-4)GlcNAc
# Procedure, shortened: as §1
# [27] = target: GlcNAc(b1-4)GlcNAc(b1-4)GlcNAc(b1-4)GlcNAc(b1-4)GlcNAc
# Procedure, shortened: as §1
# [28] = target: GlcNAc(b1-4)GlcNAc(b1-4)GlcNAc(b1-4)GlcNAc(b1-4)GlcNAc(b1-4)GlcNAc
# Procedure, shortened: as §1
# [29] = target: GlcNAc(b1-4)[GlcNAc(b1-6)]GalNAc
# Procedure, shortened: as §1
# [30] = target: GlcNAc(b1-6)Gal(b1-4)GlcNAc
# Procedure, shortened: as §1
# GlcNAc(b1-6)GalNAc = target: GlcNAc(b1-6)GalNAc
# Procedure, shortened: as §1
# [31] = target: GlcNAc6S(b1-3)Gal(b1-4)GlcNAc
# Procedure, shortened: as §1
# Kdn(a2-3)Gal(b1-3)GalNAc = target: Kdn(a2-3)Gal(b1-3)GalNAc
# Procedure, shortened: as §1
# Kdn(a2-3)Gal(b1-3)GlcNAc = target: Kdn(a2-3)Gal(b1-3)GlcNAc
# Procedure, shortened: as §1
# Kdn(a2-3)Gal(b1-4)Glc = target: Kdn(a2-3)Gal(b1-4)Glc
# Procedure, shortened: as §1
# Kdn(a2-3)Gal(b1-4)GlcNAc = target: Kdn(a2-3)Gal(b1-4)GlcNAc
# Procedure, shortened: as §1
# [32] = target: Kdn(a2-3)Gal(b1-4)[Fuc(a1-3)]GlcNAc
# Procedure, shortened: as §1
# Kdn(a2-6)Gal(b1-4)GlcNAc = target: Kdn(a2-6)Gal(b1-4)GlcNAc
# Procedure, shortened: as §1
# [33] = target: Man(a1-2)Man(a1-2)Man(a1-3)Man
# Procedure, shortened: as §1
# [34] = target: Man(a1-2)Man(a1-2)Man(a1-6)[Man(a1-3)]Man
# Procedure, shortened: as §1
# Man(a1-2)Man(a1-3)Man = target: Man(a1-2)Man(a1-3)Man
# Procedure, shortened: as §1
binder,measurement,setting,value
B1,glycan array binding signal (z-score),[1],-0.31
same,glycan array binding signal (z-score),GlcNAc(b1-3)Gal(b1-4)Glc,-0.323
same,glycan array binding signal (z-score),[2],-0.329
same,glycan array binding signal (z-score),[3],-0.328
same,glycan array binding signal (z-score),[4],-0.327
same,glycan array binding signal (z-score),[5],-0.265
same,glycan array binding signal (z-score),[6],-0.335
same,glycan array binding signal (z-score),[7],-0.309
same,glycan array binding signal (z-score),[8],-0.299
same,glycan array binding signal (z-score),[9],-0.303
same,glycan array binding signal (z-score),[10],-0.317
same,glycan array binding signal (z-score),[11],-0.316
same,glycan array binding signal (z-score),[12],-0.264
same,glycan array binding signal (z-score),[13],-0.331
same,glycan array binding signal (z-score),[14],-0.296
same,glycan array binding signal (z-score),[15],-0.276
same,glycan array binding signal (z-score),[16],-0.309
same,glycan array binding signal (z-score),[17],-0.328
same,glycan array binding signal (z-score),[18],-0.333
same,glycan array binding signal (z-score),[19],-0.345
same,glycan array binding signal (z-score),[20],-0.326
same,glycan array binding signal (z-score),[21],-0.311
same,glycan array binding signal (z-score),GlcNAc(b1-3)GalNAc,-0.342
same,glycan array binding signal (z-score),GlcNAc(b1-3)Man,-0.329
same,glycan array binding signal (z-score),[22],-0.347
same,glycan array binding signal (z-score),[23],-0.319
same,glycan array binding signal (z-score),[24],-0.329
same,glycan array binding signal (z-score),[25],-0.283
same,glycan array binding signal (z-score),GlcNAc(b1-4)GlcNAc,-0.33
same,glycan array binding signal (z-score),[26],-0.338
same,glycan array binding signal (z-score),[27],-0.345
same,glycan array binding signal (z-score),[28],-0.344
same,glycan array binding signal (z-score),[29],-0.35
same,glycan array binding signal (z-score),[30],-0.336
same,glycan array binding signal (z-score),GlcNAc(b1-6)GalNAc,-0.346
same,glycan array binding signal (z-score),[31],-0.322
same,glycan array binding signal (z-score),Kdn(a2-3)Gal(b1-3)GalNAc,-0.319
same,glycan array binding signal (z-score),Kdn(a2-3)Gal(b1-3)GlcNAc,-0.319
same,glycan array binding signal (z-score),Kdn(a2-3)Gal(b1-4)Glc,-0.356
same,glycan array binding signal (z-score),Kdn(a2-3)Gal(b1-4)GlcNAc,-0.318
same,glycan array binding signal (z-score),[32],0.875
same,glycan array binding signal (z-score),Kdn(a2-6)Gal(b1-4)GlcNAc,-0.325
same,glycan array binding signal (z-score),[33],-0.36
same,glycan array binding signal (z-score),[34],-0.357
same,glycan array binding signal (z-score),Man(a1-2)Man(a1-3)Man,-0.348
